Test results published in the supplement of paper PMC4967469.
The IC50 comes from the fitted curve, where viability falls to half of the control; a limit (>, <) means that the fit lies beyond the doses tested. AUC sums up the same curve from the lowest dose to the 256-fold higher top dose: 1 means no effect, lower means more sensitive. For some of these results: Any top dose called inferred was calculated from the reported fits.

Key:
Assay in all cases: Viability of human cancer cell lines after 72 h of drug (GDSC screen)
[1] = compound: O=C(c1ccc(C(=O)N2CCC(N3CCCC3)CC2)c(Nc2ccccc2)c1)N1CCC(N2CCCC2)CC1 [UNC1215]; conditions: top dose 1 µM; top dose inferred
Method: (§1)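 Human cancer cell lines in 384-well plates, medium with 10% serum, drug for 72 h over a 256-fold dose range (nine 2-fold or five 4-fold steps up to the top dose). Adherent lines were fixed and stained with the nucleic acid dye Syto60, suspension lines read with resazurin; signal relative to control wells, capped at 0 and 100%. One two-parameter sigmoid per drug and line, fitted in a mixed model over all curves with the slope shared within a line.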

[2] = compound: CN(C)Cc1cccc(N=C(c2ccccc2)c2c(O)[nH]c3cc(C(=O)N(C)C)ccc23)c1 [BIX02189]; conditions: top dose 20 µM; top dose inferred
Method: as §1

[3] = compound: Cc1cnc(Nc2ccc(F)cc2Cl)nc1-c1c[nH]c(C(=O)N[C@H](CO)c2cccc(Cl)c2)c1 [VX-11e]; conditions: top dose 5.12 µM; top dose inferred
Method: as §1

[4] = compound: COc1cccc2cc(-c3nc([C@H]4CC[C@H](C(=O)O)CC4)n4ncnc(N)c34)[nH]c12 [OSI-027]; conditions: top dose 20 µM
Method: as §1

[5] = compound: Cc1cnc(Nc2ccc(OCCN3CCCC3)cc2)nc1Nc1cccc(S(=O)(=O)NC(C)(C)C)c1 [TG101348]; conditions: top dose 10.24 µM
Method: as §1

[6] = compound: CCc1cc(-c2n[nH]c(C)c2-c2ccc3c(c2)OCCO3)c(O)cc1O [CCT018159]; conditions: top dose 10 µM; top dose inferred
Method: as §1

[7] = compound: COC(=O)CNC(=O)C(=O)OC [Dimethyloxalylglycine]; conditions: top dose 4000 µM; top dose inferred
Method: as §1

BFTC-909 (kidney, adherent) gave an AUC [1] of 0.982, an IC50 [1] greater than 1 µM and an AUC [2] of 0.985. For the same cell line, the IC50 [2] was greater than 20 µM, the AUC [3] was 0.978 and the IC50 [3] was greater than 5.12 µM. The AUC [4] was 0.959, the IC50 [4] was greater than 20 µM and the AUC [5] was 0.967. For the same cell line, the IC50 [5] was greater than 10.2 µM, the AUC [6] was 0.835 and the IC50 [6] was 6.36 µM. For the same cell line, the AUC [7] was 0.511 and the IC50 [7] was 268 µM.

For SN12C (kidney, adherent), the AUC [1] was 0.983, the IC50 [1] was greater than 1 µM and the AUC [2] was 0.983. For the same cell line, the IC50 [2] was greater than 20 µM, the AUC [3] was 0.984 and the IC50 [3] was greater than 5.12 µM. It also gave an AUC [4] of 0.935, an IC50 [4] greater than 20 µM and an AUC [5] of 0.95. For the same cell line, the IC50 [5] was greater than 10.2 µM, the AUC [6] was 0.903 and the IC50 [6] was greater than 10 µM. For the same cell line, the AUC [7] was 0.453 and the IC50 [7] was 183 µM.

For ECC12 (stomach, suspension), the AUC [7] was 0.786 and the IC50 [7] was 2220 µM.

In the case of “BEN (non-small cell lung carcinoma, adherent)”, the AUC [1] is reported as 0.984, the IC50 [1] is reported as greater than 1 µM and the AUC [2] is reported as 0.961. For the same cell line, the IC50 [2] was greater than 20 µM, the AUC [3] was 0.977 and the IC50 [3] was greater than 5.12 µM. It also gave an AUC [4] of 0.327, an IC50 [4] of 0.381 µM and an AUC [5] of 0.881. It also gave an IC50 [5] greater than 10.2 µM, an AUC [6] of 0.972 and an IC50 [6] greater than 10 µM. It also gave an AUC [7] of 0.212 and an IC50 [7] of 30.6 µM.

For “COR-L303 (small cell lung carcinoma, suspension)”, the AUC [2] was 0.979, the IC50 [2] was greater than 20 µM and the AUC [3] was 0.979. The IC50 [3] was greater than 5.12 µM, the AUC [4] was 0.293 and the IC50 [4] was 0.334 µM. It also gave an AUC [5] of 0.885 and an IC50 [5] greater than 10.2 µM.

For SNU-1040 (large intestine, adherent), the AUC [1] was 0.966, the IC50 [1] was greater than 1 µM and the AUC [2] was 0.932. For the same cell line, the IC50 [2] was greater than 20 µM, the AUC [3] was 0.853 and the IC50 [3] was greater than 5.12 µM. The AUC [4] was 0.711, the IC50 [4] was 6.11 µM and the AUC [5] was 0.716. The IC50 [5] was 3.28 µM.

Work on YMB-1-E (breast, adherent) yielded an AUC [2] of 0.974, an IC50 [2] greater than 20 µM and an AUC [3] of 0.972. For the same cell line, the IC50 [3] was greater than 5.12 µM, the AUC [4] was 0.427 and the IC50 [4] was 0.734 µM. It also gave an AUC [5] of 0.948 and an IC50 [5] greater than 10.2 µM.

In the case of SNU-398 (liver, adherent), the AUC [1] is reported as 0.984, the IC50 [1] is reported as greater than 1 µM and the AUC [2] is reported as 0.972. For the same cell line, the IC50 [2] was greater than 20 µM, the AUC [3] was 0.821 and the IC50 [3] was 3.13 µM. It also gave an AUC [4] of 0.249, an IC50 [4] of 0.229 µM and an AUC [5] of 0.926. The IC50 [5] was greater than 10.2 µM, the AUC [7] was 0.546 and the IC50 [7] was 337 µM.

“LU-99A (large cell lung carcinoma, adherent)” was tested, and the AUC [1] was 0.984, the IC50 [1] was greater than 1 µM and the AUC [2] was 0.943. It also gave an IC50 [2] greater than 20 µM, an AUC [3] of 0.963 and an IC50 [3] greater than 5.12 µM. For the same cell line, the AUC [4] was 0.886, the IC50 [4] was greater than 20 µM and the AUC [5] was 0.921. It also gave an IC50 [5] greater than 10.2 µM, an AUC [6] of 0.879 and an IC50 [6] greater than 10 µM. It also gave an AUC [7] of 0.478 and an IC50 [7] of 217 µM.

Work on CAL-148 (breast, suspension) yielded an AUC [2] of 0.975, an IC50 [2] greater than 20 µM and an AUC [3] of 0.988. For the same cell line, the IC50 [3] was greater than 5.12 µM, the AUC [4] was 0.448 and the IC50 [4] was 0.91 µM. The AUC [5] was 0.923, the IC50 [5] was greater than 10.2 µM and the AUC [7] was 0.846. It also gave an IC50 [7] of 2580 µM.

SNU-175 (large intestine, suspension) was tested, and the AUC [2] was 0.914, the IC50 [2] was greater than 20 µM and the AUC [3] was 0.863. For the same cell line, the IC50 [3] was 3.97 µM, the AUC [4] was 0.661 and the IC50 [4] was 3.39 µM. It also gave an AUC [5] of 0.597 and an IC50 [5] of 1.16 µM.

SW1116 (large intestine, adherent) gave an AUC [1] of 0.984, an IC50 [1] greater than 1 µM and an AUC [2] of 0.978. The IC50 [2] was greater than 20 µM, the AUC [3] was 0.985 and the IC50 [3] was greater than 5.12 µM. For the same cell line, the AUC [4] was 0.875, the IC50 [4] was greater than 20 µM and the AUC [5] was 0.985. For the same cell line, the IC50 [5] was greater than 10.2 µM, the AUC [6] was 0.937 and the IC50 [6] was greater than 10 µM.

“COR-L32 (small cell lung carcinoma, suspension)” gave an AUC [1] of 0.954 and an IC50 [1] greater than 1 µM.

With PC-3 (prostate, adherent) the AUC [1] was 0.978, the IC50 [1] was greater than 1 µM and the AUC [2] was 0.964. The IC50 [2] was greater than 20 µM, the AUC [3] was 0.969 and the IC50 [3] was greater than 5.12 µM. It also gave an AUC [4] of 0.254, an IC50 [4] of 0.207 µM and an AUC [6] of 0.886. The IC50 [6] was greater than 10 µM, the AUC [7] was 0.548 and the IC50 [7] was 349 µM.

With “COR-L311 (small cell lung carcinoma, suspension)” the AUC [2] was 0.954, the IC50 [2] was greater than 20 µM and the AUC [3] was 0.935. It also gave an IC50 [3] greater than 5.12 µM, an AUC [4] of 0.231 and an IC50 [4] of 0.194 µM. For the same cell line, the AUC [5] was 0.768 and the IC50 [5] was 4.11 µM.
